# Sequences with one replicate were seen in a single cluster, so their values are uncertain.
# Test system: ATP
# Assay: switch fluorescence ratio, 500 uM ATP over buffer (Cy3 cluster intensity, sum of 5 cycles each) (fold (ratio)); higher = stronger signal-on switching upon ATP binding; sequences stand for … in TCGTCGGCAGCGTCAGATGTGTATAAGAGACAGTTTTTTTTTTTTTTTTTTTTTTTTT…TC
# Details: aptamer strand: ATP DNA aptamer (quencher-CACCTGGGGGAGTATTGCGGAGGAAGG + anchor), 100 nM annealed; ATP concentration: 500 uM; one replicate
# In short: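 Cy3-labelled switching-strand clusters on a modified Illumina MiSeq flow-cell were annealed to 100 nM quencher-labelled ATP aptamer, imaged in selection buffer, then imaged after 15 min with 500 uM ATP at 22 °C. Five buffer/ATP cycles ran, with NaOH stripping and re-annealing between them. The fluorescence ratio is summed target-cycle over summed buffer-cycle Cy3 intensity per cluster, averaged per switch-domain sequence. Clusters outside 100-1000 RFU were excluded.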
# 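Note: ATP exposure 15 min at 22 °C before imaging.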
row,Sequence,switch fluorescence ratio
1,GGGACCACTC,0.987
2,GGGACCCTGG,0.95
3,GGGACCGCAG,1.02
4,GGGACCGTTG,1.09
5,GGGACCTTTA,1.03
6,GGGACGCCTG,0.942
7,GGGACGTTCT,1.01
8,GGGACGTTGT,1.09
9,GGGACTAAAC,1.44
10,GGGACTGACG,1.04
11,GGGACTTACG,1.09
12,GGGACTTATC,1.01
13,GGGAGAATCA,0.956
14,GGGAGCAGAG,0.968
15,GGGAGCGAGG,1.01
16,GGGAGGTCTT,0.994
17,GGGAGTAGAG,0.993
18,GGGAGTTTCT,0.975
19,GGGAGTTTTT,0.987
20,GGGATACTGC,1.02
21,GGGATCGATA,0.995
22,GGGATCGTAG,0.998
23,GGGATCTACT,1.01
24,GGGATGCATA,0.998
25,GGGATGCTAT,1.03

row,Sequence,switch fluorescence ratio
1,GGGATGTAGC,1.05
2,GGGATGTGCA,1.02
3,GGGATTAGTG,1
4,GGGATTCT,1.05
5,GGGATTTTAT,0.933
6,GGGCAAGTAA,1.03
7,GGGCACTCTG,0.986
8,GGGCACTTCA,1.02
9,GGGCAGCTTC,1.05
10,GGGCATTACC,1.02
11,GGGCCACATA,1.03
12,GGGCCATCTT,1.03
13,GGGCCATGCG,0.995
14,GGGCCCATGG,1.02
15,GGGCCGTATT,0.985
16,GGGCCGTTCG,1
17,GGGCCTATGG,1.08
18,GGGCCTCCCC,1.02
19,GGGCCTGACG,1.03
20,GGGCCTGTAC,0.996
21,GGGCCTGTTC,0.942
22,GGGCCTTTGA,1.04
23,GGGCGAACTC,1.03
24,GGGCGACCGA,0.961
25,GGGCGATCGT,1.03

row,Sequence,switch fluorescence ratio
1,GGGCGCCTGT,0.957
2,GGGCGCGTAG,1.03
3,GGGCGGCAGA,0.988
4,GGGCGGTATT,0.969
5,GGGCGTGGGC,0.992
6,GGGCGTGGGT,1.04
7,GGGCTAGGGC,1.03
8,GGGCTCAGTG,1
9,GGGCTCCTTC,1.06
10,GGGCTCGCAT,1.05
11,GGGCTTCGTG,0.993
12,GGGCTTCTTA,0.996
13,GGGCTTTAGG,1.07
14,GGGGAACAT,1.01
15,GGGGAACGAT,0.995
16,GGGGAAGTAA,1.04
17,GGGGAATCCC,1.01
18,GGGGACCCAG,0.991
19,GGGGACGCAC,1.66
20,GGGGAGGTAT,1.03
21,GGGGAGTAAG,0.996
22,GGGGAGTATC,1.02
23,GGGGAGTCTA,0.967
24,GGGGATCACC,1.01
25,GGGGATCCAA,1.07

row,Sequence,switch fluorescence ratio
1,GGGGATCGT,0.993
2,GGGGATCTCC,1
3,GGGGATGCA,0.988
4,GGGGATTA,0.997
5,GGGGATTGTA,0.987
6,GGGGCAAAAG,0.991
7,GGGGCAACAA,1.06
8,GGGGCAACTG,1.04
9,GGGGCACCAC,1.01
10,GGGGCCAAGC,1.03
11,GGGGCCACGG,1.02
12,GGGGCCATAG,1.01
13,GGGGCCATTA,0.983
14,GGGGCCCTG,0.991
15,GGGGCGAAGT,0.985
16,GGGGCGCGAA,0.972
17,GGGGCGTACT,1.01
18,GGGGCTAAAA,1.03
19,GGGGCTAAAT,1.02
20,GGGGCTAGAA,1.01
21,GGGGCTTCGC,0.915
22,GGGGGACATG,1.07
23,GGGGGATC,1.01
24,GGGGGCGACG,1.15
25,GGGGGCTGGC,0.997

row,Sequence,switch fluorescence ratio
1,GGGGGCTTAA,0.998
2,GGGGGGACAT,1.02
3,GGGGGTGCTA,0.952
4,GGGGGTGTCC,1.09
5,GGGGTATCTA,1
6,GGGGTATTCC,0.996
7,GGGGTCACTG,0.96
8,GGGGTCATTA,1.06
9,GGGGTCCTCT,0.976
10,GGGGTCCTGT,1.01
11,GGGGTCGATA,0.978
12,GGGGTCGCAG,0.981
13,GGGGTCGCCG,1
14,GGGGTCTTCA,1.04
15,GGGGTGAAGA,1.08
16,GGGGTGCACC,1
17,GGGGTGCGCA,0.803
18,GGGGTTAACC,1.01
19,GGGGTTTATT,1
20,GGGTAAGACT,1.04
21,GGGTACAAGG,1.01
22,GGGTACAATG,1
23,GGGTAGTGGC,1.08
24,GGGTATCAGT,0.969
25,GGGTATGTTC,0.957

row,Sequence,switch fluorescence ratio
1,GGGTCATAAT,0.98
2,GGGTCATGC,1.01
3,GGGTCATTGG,1.01
4,GGGTCATTTT,0.965
5,GGGTGAGAAT,1.06
6,GGGTGATTCG,0.977
7,GGGTGCAAGG,1.17
8,GGGTGCTCTC,0.98
9,GGGTGGATGC,1
10,GGGTGTTCAA,1.04
11,GGGTGTTCTC,1.02
12,GGGTTAGAAT,1.06
13,GGGTTATGCA,1.03
14,GGGTTATTAC,0.999
15,GGGTTCGGG,0.998
16,GGGTTGCACA,0.997
17,GGGTTTATTC,1.01
18,GGGTTTCCTC,1.07
19,GGGTTTGTGA,0.975
20,GGGTTTTCG,0.949
21,GGTAAACCCC,0.994
22,GGTAAAGCTT,1.01
23,GGTAAATGTT,0.968
24,GGTAAATTTC,1.02
25,GGTAACACTG,1.03

row,Sequence,switch fluorescence ratio
1,GGTAATGATA,1.02
2,GGTAATGTGG,0.952
3,GGTAATTAGG,1.01
4,GGTACCAAAC,1
5,GGTACCAAGA,1.05
6,GGTACCTCGT,1.03
7,GGTACGAAG,0.961
8,GGTACGAGCG,0.977
9,GGTACGATGT,1
10,GGTACGCCCT,1.02
11,GGTACGTCTC,1.01
12,GGTACTCGC,0.994
13,GGTAGAAGCC,0.977
14,GGTAGACAGG,1.04
15,GGTAGAGGCT,1.02
16,GGTAGCTAGA,1.03
17,GGTAGTATGT,0.981
18,GGTAGTCGG,1.01
19,GGTAGTCTGG,0.966
20,GGTATAGCCT,0.958
21,GGTATAGTAT,0.999
22,GGTATATTCG,1.03
23,GGTATATTGA,1
24,GGTATCTCAT,1.03
25,GGTATGAAAG,1.03

row,Sequence,switch fluorescence ratio
1,GGTATGCAAC,0.968
2,GGTATGCCGC,0.892
3,GGTATGGGTT,0.983
4,GGTATTAATG,1
5,GGTCAAATAT,0.982
6,GGTCAAGCCT,1.05
7,GGTCAAGGC,1.11
8,GGTCACACAT,0.991
9,GGTCACCCAC,1.4
10,GGTCACGCAA,2.91
11,GGTCAGCTAG,0.99
12,GGTCAGGACG,0.921
13,GGTCAGTCGC,0.991
14,GGTCATCGGT,0.912
15,GGTCATGACA,0.998
16,GGTCATTATG,0.982
17,GGTCATTTTA,0.979
18,GGTCCAGGTG,1.19
19,GGTCCAGTAA,1.03
20,GGTCCAGTTT,1.02
21,GGTCCCAGGT,3.38
22,GGTCCCGGCT,0.926
23,GGTCCGCGCC,1.36
24,GGTCGACAGT,0.995
25,GGTCGAGGTC,0.957

# From the supplement of paper PMC10126150
